# PubChem BioAssay AID1347417 (National Center for Advancing Translational Sciences (NCATS), 2020)
# In all, about 120,000 compounds went through this assay and about 5,300 (4.4%) were called active. This list was built around the results that the source calls inconclusive (neither active nor inactive); the mix of calls is not that of the screen. The call rests on the fitted dose curve; in most records, active means well fitted inhibition curve with a large enough effect; inconclusive means small, poorly fitted or top-dose-only effect; inactive means no such curve, though single readings can be large or run the other way. A potency beside an inconclusive call is a rough fit, not a confirmed value.
# Test: qHTS Primary assay for Inhibitors of Plasmodium falciparum Dd2 growth in vitro; further: nearly all actives have a fitted effect of over 65% in size;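 on activity, negative = inhibition: plate controls were DMSO vehicle for no effect and reference drug for full effect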
# Conditions: P. falciparum Dd2 growth, SYBR Green, 72 h; activity, negative = inhibition: at 28.9 µM (top of the series) unless noted; series mostly up to 28.9 µM
# How it was run: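 Infected erythrocytes (Dd2, 0.3% parasitemia, 2.5% hematocrit final) are added to compound in RPMI-1640/Albumax II medium, grown 72 h at 37C in low oxygen, then lysed with saponin/Triton-X containing SYBR Green and read by fluorescence.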
# Potency means the concentration at half of the fitted maximal effect; tags describe the fitted curve by direction and shape.
Compound,Potency,"activity, negative = inhibition",outcome
OCc1cccc(-c2cc(-c3cccnc3)c3cncn3c2)c1,"inconclusive: 12.6 µM [inhibitor, single point]",–,–
COc1ccc(O[C@H]2COCCN(C(=O)c3ccc(OC)cc3)C2)cc1,–,inactive: -6.54% [at 44.1 µM],–
Cc1nc2c(c(-c3ccc(O)cc3)n1)CN(C(=O)c1cccc(Cl)c1)CC2,"inconclusive: 0.178 µM [inhibitor, full curve, poor fit]",–,–
O=C(c1ccsc1)N1CCN(c2nnc3ccc(C(F)(F)F)cn23)CC1,"inconclusive: 0.178 µM [inhibitor, full curve]",–,–
CCOc1ccc(NC(=O)c2oc3ccccc3c2NC(=O)c2c(F)cccc2F)cc1,"inconclusive: 17.8 µM [inhibitor, single point]",–,–
O=C(CCCN1C(=O)C(c2ccccc2)Oc2cccnc21)NCCc1noc(-c2ccncc2)n1 (stereo not drawn),–,–,inactive
COc1ccc(-c2cc(C(=O)NC3CC3)c3c(C)nn(-c4ccccc4)c3n2)cc1,"inconclusive: 8.91 µM [inhibitor, single point]",–,–
Cn1nc2n(c1=O)CCN(C(=O)c1ccc(OC(F)(F)F)cc1)CC2,–,inactive: 29.5%,–
Fc1ccccc1-c1noc(NCCc2ccc(Cl)cc2)n1,–,–,inactive
Cc1ccc(NC(=O)N2CCCC2c2nncn2-c2ccccc2)cc1C (stereo not drawn),–,inactive: -12.6%,–
O=C(Nc1ccccc1)N1CCC2(C1)C(=O)N(CCc1ccccc1)c1ccccc12 (stereo not drawn),"inconclusive: 7.94 µM [inhibitor, partial curve, poor fit]",–,–
C[C@@H](N)C(=O)N1CCC(C(=O)Nc2cccc(-c3cccc(Cl)c3)c2)CC1,"inconclusive: 20 µM [inhibitor, single point]",–,–
CC(C)c1nc2c(c(-c3ccc(Cl)cc3)n1)CCN(Cc1ccnn1C)CC2,"inconclusive: 17.8 µM [inhibitor, single point]",–,–
O=C1Nc2ccccc2OCC12CCN(Cc1ccccc1)CC2,"inconclusive: 12.6 µM [inhibitor, single point]",–,–
COc1cccc(CC(=O)N2CCC3(CC2)NC(=O)N(c2cccc(Cl)c2)N3)c1,"inconclusive: 17.8 µM [inhibitor, single point]",–,–
Cc1ccc(CSC2=Nc3ccccc3C3=NC(CC(=O)NC4CCCCC4)C(=O)N23)cc1 (stereo not drawn),"inconclusive: 12.6 µM [inhibitor, partial curve]",–,–
COc1ccc(CNC(=O)c2cc(Nc3ccc(C)cc3C)nc3ccccc23)cc1,–,inactive: -17.9%,–
Cc1ccc(CN2C(=O)[C@@H]3C[C@@H](O)CN3C3(CN(Cc4ccc(C(F)(F)F)cc4)C3)C2=O)o1,"inconclusive: 17.8 µM [inhibitor, single point]",–,–
Cc1ccc(NC(=O)C(=O)c2cc(C)n(-c3ccc(F)cc3)c2C)cc1C,"inconclusive: 20 µM [inhibitor, single point]",–,–
Cc1ccc(O)c(CN2CC[C@@H](c3ccc(F)cc3)[C@H](O)C2)c1,"inconclusive: 5.01 µM [inhibitor, partial curve, poor fit]",–,–
Cc1noc(C)c1-c1cc2cc(CN(C)C)oc2c(NCCc2ccccc2)n1,"inconclusive: 1.58 µM [inhibitor, full curve, poor fit]",–,–

Compound,Potency,"activity, negative = inhibition",outcome
Cc1nc(C2CCCN(C(=O)CCC(C)C)C2)cc(N2CCCC2)n1 (stereo not drawn),–,inactive: -28.3%,–
Cc1ccccc1CCNC(=O)c1cc2cc(S(=O)(=O)N3CCCCC3)ccc2n1C,"inconclusive: 10 µM [inhibitor, partial curve]",–,–
O=C1NCCCCCCN(C(=O)c2ccco2)[C@H]2C[C@H](C(=O)N3CCN(c4ccccn4)CC3)C[C@@H]12,"inconclusive: 5.62 µM [inhibitor, partial curve, poor fit]",–,–
COc1ccc(Cl)cc1NC(=O)CCCN1C(=O)C(c2ccccc2)Oc2cccnc21 (stereo not drawn),"inconclusive: 11.2 µM [inhibitor, single point]",–,–
COc1ccc(NC(=O)c2cc3c(=O)n(Cc4cccnc4)ccc3nc2C)cc1OC,–,–,inactive
COc1cc2c(cc1OC)C(COc1cc(C)cc(C)c1)N(C(=O)COc1ccccc1)CC2 (stereo not drawn),active: 5.01 µM,–,–
CC(C)(N)C(=O)N1CCCC(N2CCN(c3ccccc3)CC2)C1 (stereo not drawn),–,inactive: -9.83%,–
CSc1cccc(NC(=O)N[C@H]2C[C@@H](C(=O)N[C@@H](CCCNC(=O)CC(C)(C)C)C(N)=O)N(C(=O)CC(C)(C)C)C2)c1,"inconclusive: 7.08 µM [inhibitor, partial curve]",–,–
Cn1cnc(S(=O)(=O)N[C@@H]2[C@@H](Cc3ccccc3)[C@H]3OCC[C@@H]23)c1,–,inactive: -20.9%,–
COCCOC1CN(C2CCN(C(=O)Cc3cccc(F)c3)CC2)C12CCCCC2 (stereo not drawn),"inconclusive: 6.31 µM [inhibitor, partial curve, poor fit]",–,–
COc1cc(OC)c(OC)cc1CNc1sc2c(c1C(=O)Nc1ccccc1OC)CCC2,"inconclusive: 7.08 µM [inhibitor, partial curve, poor fit]",–,–
COc1ccc(-c2nc3cc(C)ccc3cc2CN2CCC[C@@H]2CO)cc1OC,"inconclusive: 10 µM [inhibitor, single point]",–,–
CCN1CCC2(Cc3ccccc3CN(S(C)(=O)=O)C2)C1 (stereo not drawn),"inconclusive: 22.4 µM [inhibitor, single point]",–,–
Cc1ccc(C2NC(=O)N(CC(=O)Nc3ccc4c(c3)OCCO4)C3=C2C(=O)OC3)cc1 (stereo not drawn),"inconclusive: 20 µM [inhibitor, partial curve, poor fit]",–,–
CCn1c(C(=O)N2CCCC(C(=O)N3CCN(c4cc(C)ccc4C)CC3)C2)cc2sccc21 (stereo not drawn),"inconclusive: 11.2 µM [inhibitor, partial curve]",–,–
CC(C)C(=O)NCC(c1ccc2c(c1)OCO2)N1CCN(c2ccccc2)CC1 (stereo not drawn),–,inactive: 7.06%,–
Cc1c(C(=O)NCCc2ccc(Cl)cc2)sc2nc3n(c(=O)c12)CCCC3,"inconclusive: 15.8 µM [inhibitor, single point]",–,–
O=C1Cc2c(-c3ccccc3OCc3ccccc3)n[nH]c2CN1Cc1ccccc1,active: 10 µM,–,–
Cc1noc(C)c1C1CCCN1Cc1cn(-c2ccccc2)nn1 (stereo not drawn),"inconclusive: 14.1 µM [inhibitor, single point]",–,–
CC1Oc2ccc(NC(=O)CC(C)(C)C)cc2CN(Cc2ccccc2F)C1=O (stereo not drawn),"inconclusive: 0.251 µM [inhibitor, full curve]",–,–
CC1(C)[C@H](Cc2cc(CN3CCCCC3)on2)C[C@@H]1NC(=O)c1cccc(F)c1,"inconclusive: 2.82 µM [inhibitor, full curve]",–,–

Compound,Potency,"activity, negative = inhibition",outcome
C=CCN(Cc1ccc(C#N)cc1)Cc1cccnc1,"inconclusive: 8.91 µM [inhibitor, partial curve]",–,–
Cc1nc2c(c(-c3ccc(Cl)cc3)n1)CCN(C(=O)c1ccc(F)cc1)CC2,"inconclusive: 17.8 µM [inhibitor, single point]",–,–
COc1ccc(N2Cc3cccc(C(=O)Nc4ccc(F)cc4)c3C2=O)cc1,–,inconclusive: -114% [inhibitor] [at 5.79 µM],–
NC(=O)[C@H](Cc1cccs1)NC(=O)C1=C[C@@H](NC(=O)c2cnccn2)[C@@H](O)[C@H](O)C1,–,inactive: 10.1% [at 44.1 µM],–
O=C(c1ccc(Cl)cc1)N1CC2(CCCN2Cc2ccccn2)Cc2ccccc21 (stereo not drawn),"inconclusive: 10 µM [inhibitor, partial curve, poor fit]",–,–
COc1ccc(-n2ncc(C(=O)Nc3cccc(C(F)(F)F)c3)c2C2CCN(C(=O)OC(C)(C)C)CC2)cc1,"inconclusive: 7.94 µM [inhibitor, partial curve, poor fit]",–,–
COc1cccc(CNC(=O)C2Cn3cccc3C(=O)N2Cc2ccccc2)c1OC (stereo not drawn),"inconclusive: 17.8 µM [inhibitor, single point]",–,–
Cn1cc(-c2cnc(Nc3ccc(F)c(Cl)c3)c3c2CCO3)cn1,"inconclusive: 10 µM [inhibitor, partial curve, poor fit]",–,–
Cc1ccc(-n2ncc(C(=O)N3CCN(c4ccc(Cl)cc4)CC3)c2C2CCN(C(=O)OC(C)(C)C)CC2)c(C)c1,"inconclusive: 11.2 µM [inhibitor, single point]",–,–
COc1ccc(-c2nnc(C3CCN(S(=O)(=O)c4ccc(C)c(C)c4)CC3)o2)cc1,"inconclusive: 2.51 µM [inhibitor, full curve, poor fit]",–,–
Cc1nc(-c2ccc(F)cc2)n(CC(=O)Nc2ccc(C(C)C)cc2)c(=O)c1CCO,active: 7.08 µM,–,–
Cc1cc(C(=O)N2CCCC(n3c(C)cnc3C3CCC3)C2)nn1C (stereo not drawn),"inconclusive: 10 µM [inhibitor, single point]",–,–
Cc1ccc2c(n1)N(C)[C@H](CO)CCN(Cc1cnc3ccccc3c1)C2,"inconclusive: 31.6 µM [inhibitor, single point]",–,–
CC(C)NC(=O)C1COC2(CCN(C(=O)CC(C)(C)C)CC2)N1C(=O)c1ccccc1 (stereo not drawn),–,inactive: -25.4%,–
Cc1nc(-c2ccccc2Br)cc([C@H]2CN3CC[C@H]2C[C@@H]3CNC(=O)c2ccc(C(C)(C)C)cc2)n1,active: 3.16 µM,–,–
CCn1nccc1C(=O)N1CCN(C(=O)N2CC3CC(C2)[C@H]2CCCC(=O)N2C3)CC1 (stereo partly drawn),–,inactive: 17.7%,–
O=C(CCCc1c[nH]c2ccccc12)N1CCc2c(nc3cc(-c4ccccc4)[nH]n3c2=O)C1,–,inactive: -20.4%,–
COc1ccc(-c2cn3cccnc3n2)cc1NC(=O)c1cc(C)cc(C)c1,active: 12.6 µM,–,–
COc1ccc(NC(=O)[C@@H]2C[C@@H](O)CN2C2CCN(C(=O)c3cccc(OC)c3)CC2)cc1,"inconclusive: 11.2 µM [inhibitor, single point]",–,–
CCCN1C(=O)CCc2cc(NC(=O)NCCCOCC)ccc21,"inconclusive: 17.8 µM [inhibitor, single point]",–,–
COc1ccc(NC(=O)N2CCC(Oc3ncccc3C(=O)N(C)C)C2)c(OC)c1 (stereo not drawn),–,–,inactive
